Laboratory results published in PubChem BioAssay (NCATS).
Inconclusive means that the source gave no clear call. Such entries were picked first, then a sample of the others. Where the call is inconclusive, the potency comes from a doubtful curve fit. The source made the active and inactive calls. Calls follow the shape of the dose curve; as a rule, active = well fitted cell-killing curve with a large enough effect; inconclusive = small, poorly fitted or top-dose-only effect, or effect the other way; inactive = no such curve, though single readings can be large or run the other way.
Potency is read from the fitted curve at half-maximal effect; tags tell the direction and shape of the fitted curve.

Assay: Viability qHTS for spleen associated tyrosine kinase inhibitor (SYKi) naive MV4-11 cells (AID 1963823); also: nearly all actives have a fitted effect of over 40% in size
Conditions: MV4-11 AML viability, CellTiter-Glo luminescence, 72 h; viability (% of control): at 45 µM (top of the series)
Method in brief: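 Viability of MV4-11 AML cells lacking prior SYK inhibitor exposure is scored by CellTiter-Glo luminescence following 72 hr compound incubation at 37 C, 5% CO2, seeded at 500 cells per well.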
For C=C(C(=O)O)C1CC(OC(=O)CC(C)CC)C2(C)CCCC(=C)C2C1 (stereo not given), the Potency was inconclusive: 0.453 µM [cytotoxic, full curve, poor fit].
With COC(=O)C1=C(C)NC(c2ncc(F)cc2F)=N[C@@H]1c1ccc(F)cc1Cl the Potency was inconclusive: 18.6 µM [cytotoxic, partial curve].
In the case of O=C(O)/C=C/c1ccc(O[C@@H]2O[C@H](CO)[C@@H](O)[C@H](O)[C@H]2O)cc1, the “viability (% of control)” value is reported as inactive: 99.6%.
In the case of Nc1ccc([N+](=O)[O-])c(C(F)(F)F)c1, the “viability (% of control)” value is reported as inactive: 77.8%.
For COc1ccc2c(c1)C=C1Cn3c-2c(C2CCCCC2)c2ccc(cc23)C(=O)NS(=O)(=O)N(C)CCOCCN(C)C1=O, the Potency was active: 16.4 µM.
With CCNC(=O)c1noc(-c2cc(Cl)c(O)cc2O)c1-c1ccc(OC)cc1 the Potency was active: 0.0326 µM.
In the case of CC(=O)c1ccc(S(=O)(=O)NC(=O)NC2CCCCC2)cc1, the “viability (% of control)” value is reported as inactive: 113%.
In the case of CC(=O)NC(C(=O)O[C@H]1CCC(C)(C)[C@@H]2CC=C3C(=O)OCC3(O)[C@@]12C)C(C)C (stereo not given in full), the Potency is reported as inconclusive: 6.4 µM [cytotoxic, partial curve].
With C/C(=C1/C(=O)Nc2ccc(NC(N)=O)cc21)c1ccc[nH]1 the Potency was inconclusive: 0.116 µM [cytotoxic, full curve].
For Cc1nc(C#Cc2ccnc(Cl)c2)c(C)n1-c1ccc(OC(F)(F)F)cc1, the Potency was active: 20.6 µM.
For CC(=O)O[C@]1(C(C)=O)CC[C@H]2[C@@H]3CCC4=CC(=O)CCC4=C3[C@@H](c3ccc(N(C)C)cc3)C[C@@]21C, the Potency was active: 25.9 µM.
With CC(C)(C)C1CCC(CC2=C(O)c3ccccc3C(=O)C2=O)CC1 (stereo not given) the “viability (% of control)” value was inactive: 72.2%.
With O=C(NCc1cccc(O)c1)Nc1nc(-c2ccncc2)cs1 the Potency was active: 10.3 µM.
In the case of O=C(O)CC(O)C(=O)O (stereo not given), the “viability (% of control)” value is reported as inactive: 81.1%.
For C[C@@]12C[C@]3(O)O[C@H](O1)[C@]1(COC(=O)c4ccccc4)[C@H]3C[C@@]12O[C@@H]1O[C@H](CO)[C@@H](O)[C@H](O)[C@H]1O, the “viability (% of control)” value was inactive: 74.7% [at 17.3 µM].
In the case of NCCCC[C@H](NC(=O)[C@@H]1Cc2ccccc2CN1C(=O)CCC(=O)c1ccccc1)C(=O)NCC(c1ccccc1)c1ccccc1, the Potency is reported as active: 20.6 µM.
With C/C=C(\C)C(=O)OC1C[C@@]2(COC(C)=O)O[C@H]2/C=C\[C@@]2(C)O[C@@H]2[C@H]2OC(=O)C(COC(C)=O)=C12 (stereo not given in full) the Potency was inconclusive: 7.09 µM [cytotoxic, partial curve].
For OC(CC1c2ccccc2-c2cncn21)C1CCCCC1 (stereo not given), the Potency was inconclusive: 18.4 µM [cytotoxic, partial curve].
For O=C(O)c1cccc(S(=O)(=O)N2CCc3ccccc3C2)c1, the “viability (% of control)” value was inactive: 82.6%.
For CC(C)[C@@](O)(c1ccc2cc(OC(F)F)c(OC(F)F)cc2c1)c1cn[nH]n1, the Potency was active: 18.4 µM.
In the case of Cc1ccccc1CN1C2=NCCN2C(=O)C2=C1CCN(Cc1ccccc1)C2, the Potency is reported as active: 16.4 µM.
For CC(F)(F)CN1CCOc2c(nn(-c3ccccc3Cl)c2-c2ccc(Cl)cc2)C1=O, the Potency was inconclusive: 25.9 µM [cytotoxic, partial curve, poor fit].
In the case of NC(=O)c1cccc2[nH]c(-c3ccc(C4CCCN4)cc3F)nc12 (stereo not given), the Potency is reported as active: 13 µM.
In the case of COC(=O)C[C@H]1C(C)(C)[C@H](OC(C)=O)C2CC3=C4CC(=O)O[C@@H](c5ccoc5)[C@]4(C)CCC3[C@@]1(C)C2=O (stereo not given in full), the Potency is reported as inconclusive: 1.42 µM [cytotoxic, full curve, poor fit].
With COC(=O)C1=CO[C@@H](O[C@@H]2O[C@H](CO)[C@@H](O)[C@H](O)[C@H]2O)[C@@H]2C(COC(C)=O)=C[C@H](O)[C@H]12 the Potency was inconclusive: 14.2 µM [cytotoxic, single point].
With COc1cc2nc(C3CC3)nc(N3CCN(c4ccccc4OC)CC3)c2cc1OC the Potency was active: 16.4 µM.
For CN(CCc1ccc(Nc2ncc(-c3cccnc3)s2)cc1)Cc1ccccc1, the Potency was active: 0.366 µM.
For CC(=O)Nc1ccn(C2COC(COC(=O)c3ccccc3)O2)c(=O)n1 (stereo not given), the Potency was active: 2.31 µM.
For CNCc1ccc(C)c(NC(=O)c2ccc(Nc3nc(-c4ccccc4)c4ccccc4n3)cc2)c1, the Potency was active: 7.42 µM.
In the case of COc1cc(/C=C/C(=O)OC[C@H]2O[C@@](CO)(O[C@H]3O[C@H](CO)[C@@H](O)[C@H](O)[C@H]3O)[C@@H](OC(=O)/C=C/c3ccc(O)c(OC)c3)[C@@H]2O)ccc1O, the “viability (% of control)” value is reported as inactive: 72.3% [at 17.3 µM].
With C[C@@H](O)[C@@H]1NC(=O)[C@H](CCCCN)NC(=O)[C@@H](Cc2c[nH]c3ccccc23)NC(=O)[C@H](Cc2ccccc2)NC(=O)[C@@H](NC(=O)[C@H](N)Cc2ccccc2)CSSC[C@@H](C(=O)N[C@H](CO)[C@@H](C)O)NC1=O the “viability (% of control)” value was inactive: 84.6% [at 17.3 µM].
For C[C@@H]1O[C@@H](O[C@H]2[C@H](O[C@H]3[C@H](O[C@H]4CC[C@@]5(C)C(CC[C@]6(C)C5CC=C5[C@@H]7CC(C)(C)C[C@@H](O)[C@]7(C)CC[C@]56C)[C@@]4(C)CO)O[C@H](C(=O)O)[C@@H](O)[C@@H]3O)OC[C@H](O)[C@@H]2O)[C@H](O)[C@H](O)[C@H]1O (stereo not given in full), the viability (% of control) was inactive: 76.2% [at 9.25 µM].
In the case of CO[C@H]1/C=C/O[C@@]2(C)Oc3c(C)c(O)c4c(O)c(c5c(c4c3C2=O)=NC2(CCN(CC(C)C)CC2)N=5)NC(=O)/C(C)=C/C=C/[C@H](C)[C@H](O)[C@@H](C)[C@@H](O)[C@@H](C)[C@H](OC(C)=O)[C@@H]1C, the Potency is reported as active: 18.6 µM.
With CC(C)(CO)c1cc2cc(NC(=O)C3(c4ccc5c(c4)OC(F)(F)O5)CC3)c(F)cc2n1CC(O)CO (stereo not given) the Potency was inconclusive: 23.1 µM [cytotoxic, single point].
For C=C1C(=O)O[C@@H]2C[C@]3(C)[C@@H](CCC(C)=O)[C@@H]3C[C@H]12, the Potency was inconclusive: 14.6 µM [cytotoxic, partial curve].
With C=C1C(O[C@@H]2O[C@H](CO)[C@@H](O)[C@H](O)[C@@H]2O)CC2C(C)(C)C(O)CCC2(C)C1CC/C(C)=C\CO (stereo not given in full) the Potency was inconclusive: 14.2 µM [cytotoxic, single point].
In the case of COc1c2c(c(C)c3c1C(=O)OC3)OC1(C)CC(O)C34OC(OC)(CCC3(C)C1C2)OC4(C)CO (stereo not given), the “viability (% of control)” value is reported as inactive: 55.7% [at 17.3 µM].
With CC(=O)N1c2ccc(-c3ccc(C(=O)O)cc3)cc2C(Nc2ccc(Cl)cc2)CC1C (stereo not given) the Potency was inconclusive: 0.0651 µM [cytotoxic, full curve].
In the case of C[C@@H](CC[C@@H]1[C@@]2(C)CCCC(C)(C)C2CC[C@@]1(C)O)CC(=O)O (stereo not given in full), the “viability (% of control)” value is reported as inactive: 70.3%.
For O=C(NC1CCN(CCCCC2(C(=O)NCC(F)(F)F)c3ccccc3-c3ccccc32)CC1)c1ccccc1-c1ccc(C(F)(F)F)cc1, the Potency was active: 2.59 µM.
